Measured values published in patent US9486506B2 (Novo Nordisk A/S, priority 2011, dated 2016).
For at least one compound, name, drawing or mass did not settle the structure. Numbered stars: 1 amine (or outer) side, 2 acyl side, 3 side chain; on linkers, the order of the positions; unused ones are H or OH. Side chains are listed from the residue outwards. Peptide text beside a SMILES is read from it. * marks the point of attachment. C18 diacid = O=C(O)CCCCCCCCCCCCCCCCC(=O)*; C16 diacid = O=C(O)CCCCCCCCCCCCCCC(=O)*; γGlu = O=C(O)[C@H](CCC(=O)[*:2])N[*:1]; AEEA = NCCOCCOCC(=O)O

Test: Assay (II) ThT fibrillation assay for physical stability
Assay type: physicochemical
Conditions: pH 7.5

SMILES | ThT assay [Lagtime] [h]
CC(C)C[C@H](NC(=O)[C@H](Cc1ccc(O)cc1)NC(=O)[C@H](CCCNC(=N)N)NC(=O)[C@H](CO)NC(=O)[C@H](Cc1ccc(O)cc1)NC(=O)[C@H](CC(=O)O)NC(=O)[C@H](CO)NC(=O)[C@@H](NC(=O)[C@H](Cc1ccccc1)NC(=O)[C@@H](NC(=O)CNC(=O)[C@H](CCC(N)=O)NC(=O)[C@H](CO)NC(=O)[C@@H](N)Cc1c[nH]cn1)[C@@H](C)O)[C@@H](C)O)C(=O)N[C@@H](CCC(=O)O)C(=O)N[C@@H](CO)C(=O)N[C@@H](CCCNC(=N)N)C(=O)N[C@@H](CCCNC(=N)N)C(=O)N[C@@H](C)C(=O)N[C@@H](CCC(N)=O)C(=O)N[C@@H](CC(=O)O)C(=O)N[C@@H](Cc1ccccc1)C(=O)N[C@H](C(=O)N[C@@H](CCCCNC(=O)CC[C@H](NC(=O)CC[C@H](NC(=O)COCCOCCNC(=O)COCCOCCNC(=O)CC[C@H](NC(=O)CCCCCCCCCCCCCCC(=O)O)C(=O)O)C(=O)O)C(=O)O)C(=O)N[C@@H](Cc1c[nH]c2ccccc12)C(=O)N[C@@H](CC(C)C)C(=O)N[C@@H](CC(C)C)C(=O)N[C@@H](CO)C(=O)N[C@H](C(=O)O)[C@@H](C)O)C(C)C [Example 70, N^ε24-[(4S)-4-carboxy-4-[[(4S)-4-carboxy-4-[[2-[2-[2-[[2-[2-[2-[[(4S)-4-carboxy-4-(15-carboxypentadecanoylamino)butanoyl]amino]ethoxy]ethoxy]acetyl]amino]ethoxy]ethoxy]acetyl]amino]butanoyl]amino]butanoyl]-[Arg12,Glu15,Lys24,Leu27,Ser28]-Glucagon] (H-HSQGTFTSDYSRYLESRRAQDFVK([γGlu-γGlu-AEEA-AEEA-γGlu-C16 diacid])WLLST-OH) | 21
CC[C@H](C)[C@H](NC(=O)[C@H](CC(=O)O)NC(=O)[C@H](CC(C)C)NC(=O)[C@H](Cc1ccc(O)cc1)NC(=O)[C@H](CCCNC(=N)N)NC(=O)[C@H](CO)NC(=O)[C@H](Cc1ccc(O)cc1)NC(=O)[C@H](CC(=O)O)NC(=O)[C@H](CO)NC(=O)[C@@H](NC(=O)[C@H](Cc1ccccc1)NC(=O)[C@@H](NC(=O)CNC(=O)[C@H](CCC(N)=O)NC(=O)[C@H](CO)NC(=O)[C@@H](N)Cc1c[nH]cn1)[C@@H](C)O)[C@@H](C)O)C(=O)N[C@@H](CCCNC(=N)N)C(=O)N[C@@H](CCCNC(=N)N)C(=O)N[C@@H](C)C(=O)N[C@@H](CCC(N)=O)C(=O)N[C@@H](CC(=O)O)C(=O)N[C@@H](Cc1ccccc1)C(=O)N[C@H](C(=O)N[C@@H](CCCCNC(=O)CC[C@H](NC(=O)CC[C@H](NC(=O)COCCOCCNC(=O)COCCOCCNC(=O)CC[C@H](NC(=O)CCCCCCCCCCCCCCCCC(=O)O)C(=O)O)C(=O)O)C(=O)O)C(=O)N[C@@H](Cc1c[nH]c2ccccc12)C(=O)N[C@@H](CC(C)C)C(=O)N[C@@H](CC(C)C)C(=O)N[C@@H](CO)C(=O)N[C@H](C(=O)O)[C@@H](C)O)C(C)C [Example 23, N^ε24-[(4S)-4-carboxy-4-[[(4S)-4-carboxy-4-[[2-[2-[2-[[2-[2-[2-[[(4S)-4-carboxy-4-(17-carboxyheptadecanoylamino)butanoyl]amino]ethoxy]ethoxy]acetyl]amino]ethoxy]ethoxy]acetyl]amino]butanoyl]amino]butanoyl]-[Arg^12,Ile^16,Lys^24,Leu^27,Ser^28]-Glucagon] (H-HSQGTFTSDYSRYLDIRRAQDFVK([γGlu-γGlu-AEEA-AEEA-γGlu-C18 diacid])WLLST-OH) | 10
CC(C)C[C@H](NC(=O)[C@H](CC(=O)O)NC(=O)[C@H](CC(C)C)NC(=O)[C@H](Cc1ccc(O)cc1)NC(=O)[C@H](CCCNC(=N)N)NC(=O)[C@H](CO)NC(=O)[C@H](Cc1ccc(O)cc1)NC(=O)[C@H](CC(=O)O)NC(=O)[C@H](CO)NC(=O)[C@@H](NC(=O)[C@H](Cc1ccccc1)NC(=O)[C@@H](NC(=O)CNC(=O)[C@H](CCC(N)=O)NC(=O)[C@H](CO)NC(=O)[C@@H](N)Cc1c[nH]cn1)[C@@H](C)O)[C@@H](C)O)C(=O)N[C@@H](CCCNC(=N)N)C(=O)N[C@@H](CCCNC(=N)N)C(=O)N[C@@H](C)C(=O)N[C@@H](CCC(N)=O)C(=O)N[C@@H](CC(=O)O)C(=O)N[C@@H](Cc1ccccc1)C(=O)N[C@H](C(=O)N[C@@H](CCCCNC(=O)CC[C@H](NC(=O)CC[C@H](NC(=O)COCCOCCNC(=O)COCCOCCNC(=O)CC[C@H](NC(=O)CCCCCCCCCCCCCCCCC(=O)O)C(=O)O)C(=O)O)C(=O)O)C(=O)N[C@@H](Cc1c[nH]c2ccccc12)C(=O)N[C@@H](CC(C)C)C(=O)N[C@@H](CCC(=O)O)C(=O)N[C@@H](CO)C(=O)N[C@H](C(=O)O)[C@@H](C)O)C(C)C [Example 47, N^ε24-[(4S)-4-carboxy-4-[[(4S)-4-carboxy-4-[[2-[2-[2-[[2-[2-[2-[[(4S)-4-carboxy-4-(17-carboxyheptadecanoylamino)butanoyl]amino]ethoxy]ethoxy]acetyl]amino]ethoxy]ethoxy]acetyl]amino]butanoyl]amino]butanoyl]-[Arg12,Leu16,Lys24,Glu27,Ser28]-Glucagon] (H-HSQGTFTSDYSRYLDLRRAQDFVK([γGlu-γGlu-AEEA-AEEA-γGlu-C18 diacid])WLEST-OH) | 12
CC(C)C[C@H](NC(=O)[C@H](Cc1ccc(O)cc1)NC(=O)[C@H](CCCNC(=N)N)NC(=O)[C@H](CO)NC(=O)[C@H](Cc1ccc(O)cc1)NC(=O)[C@H](CC(=O)O)NC(=O)[C@H](CO)NC(=O)[C@@H](NC(=O)[C@H](Cc1ccccc1)NC(=O)[C@@H](NC(=O)CNC(=O)[C@H](CCC(N)=O)NC(=O)[C@H](CO)NC(=O)[C@@H](N)Cc1c[nH]cn1)[C@@H](C)O)[C@@H](C)O)C(=O)N[C@@H](CC(=O)O)C(=O)N[C@@H](C)C(=O)N[C@@H](CCCNC(=N)N)C(=O)N[C@@H](CCCNC(=N)N)C(=O)N[C@@H](C)C(=O)N[C@@H](CCC(N)=O)C(=O)N[C@@H](CC(=O)O)C(=O)N[C@@H](Cc1ccccc1)C(=O)N[C@H](C(=O)N[C@@H](CCCCNC(=O)CC[C@H](NC(=O)CC[C@H](NC(=O)COCCOCCNC(=O)COCCOCCNC(=O)CC[C@H](NC(=O)CCCCCCCCCCCCCCCCC(=O)O)C(=O)O)C(=O)O)C(=O)O)C(=O)N[C@@H](Cc1c[nH]c2ccccc12)C(=O)N[C@@H](CC(C)C)C(=O)N[C@@H](CC(C)C)C(=O)N[C@@H](CO)C(=O)N[C@H](C(=O)O)[C@@H](C)O)C(C)C [Example 16, N^ε24-[(4S)-4-carboxy-4-[[(4S)-4-carboxy-4-[[2-[2-[2-[[2-[2-[2-[[(4S)-4-carboxy-4-(17-carboxyheptadecanoylamino)butanoyl]amino]ethoxy]ethoxy]acetyl]amino]ethoxy]ethoxy]acetyl]amino]butanoyl]amino]butanoyl]-[Arg^12,Ala^16,Lys^24,Leu^27,Ser^28]-Glucagon] (H-HSQGTFTSDYSRYLDARRAQDFVK([γGlu-γGlu-AEEA-AEEA-γGlu-C18 diacid])WLLST-OH) | 45
CC(C)C[C@H](NC(=O)[C@H](CC(C)C)NC(=O)[C@H](Cc1c[nH]c2ccccc12)NC(=O)[C@H](CCCCNC(=O)CC[C@H](NC(=O)CC[C@H](NC(=O)COCCOCCNC(=O)COCCOCCNC(=O)CC[C@H](NC(=O)CCCCCCCCCCCCCCCCC(=O)O)C(=O)O)C(=O)O)C(=O)O)NC(=O)[C@@H](NC(=O)[C@H](Cc1ccccc1)NC(=O)[C@H](CC(=O)O)NC(=O)[C@H](CCC(N)=O)NC(=O)[C@H](C)NC(=O)[C@H](CCCNC(=N)N)NC(=O)[C@H](CCCNC(=N)N)NC(=O)[C@H](CC(C)C)NC(=O)[C@H](CC(=O)O)NC(=O)[C@H](CC(C)C)NC(=O)[C@H](Cc1ccc(O)cc1)NC(=O)[C@H](CCCNC(=N)N)NC(=O)[C@H](CO)NC(=O)[C@H](Cc1ccc(O)cc1)NC(=O)[C@H](CC(=O)O)NC(=O)[C@H](CO)NC(=O)[C@@H](NC(=O)[C@H](Cc1ccccc1)NC(=O)[C@@H](NC(=O)CNC(=O)[C@H](CCC(N)=O)NC(=O)[C@H](CO)NC(=O)[C@@H](N)Cc1c[nH]cn1)[C@@H](C)O)[C@@H](C)O)C(C)C)C(=O)N[C@@H](C)C(=O)N[C@H](C(=O)O)[C@@H](C)O [Example 87, N^ε24-[(4S)-4-carboxy-4-[[(4S)-4-carboxy-4-[[2-[2-[2-[[2-[2-[2-[[(4S)-4-carboxy-4-(17-carboxyheptadecanoylamino)butanoyl]amino]ethoxy]ethoxy]acetyl]amino]ethoxy]ethoxy]acetyl]amino]butanoyl]amino]butanoyl]-[Arg12,Leu16,Lys24,Leu27,Ala28]-Glucagon] (H-HSQGTFTSDYSRYLDLRRAQDFVK([γGlu-γGlu-AEEA-AEEA-γGlu-C18 diacid])WLLAT-OH) | 45
CC(C)C[C@H](NC(=O)[C@H](Cc1ccc(O)cc1)NC(=O)[C@H](CCCCN)NC(=O)[C@H](CO)NC(=O)[C@H](Cc1ccc(O)cc1)NC(=O)[C@H](CC(=O)O)NC(=O)[C@H](CO)NC(=O)[C@@H](NC(=O)[C@H](Cc1ccccc1)NC(=O)[C@@H](NC(=O)CNC(=O)[C@H](CCC(N)=O)NC(=O)[C@H](CO)NC(=O)[C@@H](N)Cc1c[nH]cn1)[C@@H](C)O)[C@@H](C)O)C(=O)N[C@@H](CCC(=O)O)C(=O)N[C@@H](CO)C(=O)N[C@@H](CCCNC(=N)N)C(=O)N[C@@H](CCCNC(=N)N)C(=O)N[C@@H](C)C(=O)N[C@@H](CCC(N)=O)C(=O)N[C@@H](CC(=O)O)C(=O)N[C@@H](Cc1ccccc1)C(=O)N[C@H](C(=O)N[C@@H](CCCCNC(=O)CC[C@H](NC(=O)COCCOCCNC(=O)COCCOCCNC(=O)CC[C@H](NC(=O)CCCCCCCCCCCCCCCCC(=O)O)C(=O)O)C(=O)O)C(=O)N[C@@H](Cc1c[nH]c2ccccc12)C(=O)N[C@@H](CC(C)C)C(=O)N[C@@H](CC(C)C)C(=O)N[C@@H](CC(N)=O)C(=O)N[C@H](C(=O)O)C(C)C)C(C)C [Example 33, N^ε24-[(4S)-4-carboxy-4-[[2-[2-[2-[[2-[2-[2-[[(4S)-4-carboxy-4-(17-carboxyheptadecanoylamino)butanoyl]amino]ethoxy]ethoxy]acetyl]amino]ethoxy]ethoxy]acetyl]amino]butanoyl]-[Glu15,Lys24,Leu27,Val29]-Glucagon] | 45
